These results are taken from the supplement of paper PMC10126150.

Sequences with one replicate were seen in a single cluster, so their values are uncertain.

The test system of the data set is ATP. In words: switch fluorescence ratio, 500 uM ATP over buffer (Cy3 cluster intensity, sum of 5 cycles each) (fold (ratio)); higher = stronger signal-on switching upon ATP binding; sequences stand for … in TCGTCGGCAGCGTCAGATGTGTATAAGAGACAGTTTTTTTTTTTTTTTTTTTTTTTTT…TC. To be noted: aptamer strand: ATP DNA aptamer (quencher-CACCTGGGGGAGTATTGCGGAGGAAGG + anchor), 100 nM annealed; ATP concentration: 500 uM; one replicate. Put shortly:
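Clusters with intensities outside 100-1000 RFU were excluded. The remaining Cy3-labelled switching-strand clusters on a modified Illumina MiSeq flow-cell had been annealed to 100 nM quencher-labelled ATP aptamer and imaged in selection buffer, then after 15 min with 500 uM ATP at 22 °C, for five cycles separated by NaOH stripping and re-annealing. The fluorescence ratio, averaged per switch-domain sequence, is each cluster's summed target-cycle Cy3 intensity over its summed buffer-cycle Cy3 intensity.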
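Note: ATP exposure 15 min at 22 °C before imaging.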

For TCGGGGTCT, the switch fluorescence ratio amounted to 1.03. The result for AACGGCCTAA reads 1.01; that for ATGGATGC, 1.06; that for ATAGTCTTAA, 0.93. Under CTATACGCGA stands 1.55.

In the case of TACGATTTTG, the switch fluorescence ratio came to 1.02.

Take CGGCTTTTGC: the switch fluorescence ratio is 1.09. Under CATAGATTGC stands 1.02; under TAATCTGGGA, 0.976.

Take TTGGTACCTA: the switch fluorescence ratio was 1. The result for GATTTAGCTT reads 1.04; that for CATCGCACGC, 3.33; that for TCATGCAGTA, 1.02.

On to CGCTTCCCGG, for which the switch fluorescence ratio was 1.33. Under AGGGTCGGTT stands 0.988.

In the case of GGTTTTTCAG, the switch fluorescence ratio was determined as 0.942. The result for TGAAGTTGCA reads 1.03; that for CAATCGGAGG, 1. In the case of AATGGTGCTA, the switch fluorescence ratio worked out at 1.01.

TAGGAACCTG: the switch fluorescence ratio was 1.08. Consider TACCTGATGG, for which the switch fluorescence ratio was 1.02. Under GCGTGTTCTT stands 0.996; under GGTTTAGTGT, 0.96; under CGAGAGGTCT, 0.954.

On to GAAGTGTCTT, for which the switch fluorescence ratio was 1.02. For ATAAAACCG, the switch fluorescence ratio came to 0.98. Under TTTATCCACA stands 1.06; under GGATCGCCAG, 0.963. For the sequence CACACGTGCC, the switch fluorescence ratio was 1.04. Under AGTCCTCCGG stands 1.54.

For the sequence TTCGTGCTAT, the switch fluorescence ratio stood at 1.03.

Turning to CGTAAGACCC, the switch fluorescence ratio is 1.22. With TTGTAATCGG, the switch fluorescence ratio came out at 0.983.

Consider GAAGGCTTCG, for which the switch fluorescence ratio was 0.957.

TAATAAGAAC: the switch fluorescence ratio worked out at 0.978.

Consider CTTAAGCTTT, for which the switch fluorescence ratio amounted to 1.04. AGAATTACTA: the switch fluorescence ratio was found to be 0.988. Under CGGGCGTGCA stands 1.01; under GTGGTAAAC, 0.981; under GGATATATTC, 0.998. Under GCCCAAAGAG stands 1.02. Under ACGAAAGCA stands 1.02; under CAGGGGCATA, 1.09. Take AACATCTTGG: the switch fluorescence ratio came out at 1.01.

For AATCGTGGG, the switch fluorescence ratio came out at 1.02.

With CATACAGTG, the switch fluorescence ratio was 1.03. Under ACCTCGTAGC stands 1.48; under CCATGGGTTA, 0.992. Under CCATCGTTT stands 1.04; under GCAGGACTAT, 1.09.

TAGTAGTCGT: the switch fluorescence ratio was 1. With CAATGCTATG, the switch fluorescence ratio came out at 1.01.

Take TTTGGTTTCG: the switch fluorescence ratio amounted to 0.961. In the case of ATCCGCTCTT, the switch fluorescence ratio was determined as 1.26. TTTGCAACCT: the switch fluorescence ratio came to 1.6.

For TGTTAGCGGA, the switch fluorescence ratio is 0.98.

With TGAGGAAAAA, the switch fluorescence ratio is 4.62.

For AGATAACTTG, the switch fluorescence ratio was found to be 1.

As to TTAGTAGAGA, the switch fluorescence ratio came out at 1.11. On to TGGTGTAGCG, for which the switch fluorescence ratio is 1.

For the sequence CATAGCTTTA, the switch fluorescence ratio was determined as 1.05. As to CATTTAATTA, the switch fluorescence ratio was 1.02.

GAATCTGTTT: the switch fluorescence ratio was 0.98. For GCGGGCCTGC, the switch fluorescence ratio worked out at 0.966. The result for GCGTTTATTT reads 1.02; that for ATCGAGGGAA, 1.01. Under AAGACACCGT stands 1.01; under TTAGCCAGTT, 0.965. Regarding GTGGTTGTTA, the switch fluorescence ratio is 0.99. Under TGAAATTACA stands 1. The result for ACTAGCGTTT reads 0.983. Under ACATTATATT stands 0.999.

Take TCGTATGGGC: the switch fluorescence ratio came to 1.01.

For the sequence CTACTCGGTC, the switch fluorescence ratio came out at 0.934. The result for CGGAAATGTT reads 0.981; that for GGTGTGGGTC, 0.993. Under TATTAGG stands 1.01; under ATCGCGTCAG, 1.07; under CGTTCGCATG, 2.3.
